Experimental data as given in PubChem BioAssay AID1347073 (National Center for Advancing Translational Sciences (NCATS), 2019).
About 200 (0.44%) of roughly 45,000 compounds were called active. About 7% were inconclusive and are not listed. The call rests on the fitted dose curve; in most records, active means well fitted activation curve with a large enough effect; inconclusive means small, poorly fitted or top-dose-only effect; inactive means no such curve, though single readings can be large or run the other way. This is one part of the list.

Assay: qHTS of TDP-43 Inhibitors: NCGC Sytravon Library Screen; further: 0% is about no effect; nearly all actives have a fitted effect of over 55% in size
Details: yeast TDP-43 toxicity rescue, BacTiter-Glo growth, 24 h; series mostly up to 46.1 µM; growth rescue (activation): at the top concentration
In short: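 TDP-43-expressing yeast, pregrown in raffinose, seeded at OD600 0.02 in galactose medium with compound for 24 hr at 30 deg C. Growth read by BacTiter-Glo luminescence, so rescue of toxicity appears as activation.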

SMILES | growth rescue (activation)
Nc1nc(N)nc(-c2ccccn2)n1 | inactive: 6.95%
O=C(NCc1ccncc1)C1Cc2c(-c3ccc(Cl)cc3)ccnc2O1 (stereo not given) | inactive: -1.77%
CC(C)Oc1ccccc1/C=N/Nc1ccccc1[N+](=O)[O-] | inactive: -9.17%
Cc1ccc(C=NNC(=O)c2cc(-c3cccnc3)nc3ccccc23)o1 | inactive: -5.49%
Cn1c(=O)[nH]c(=O)c2c1nc(N1CCCCCC1)n2CCSc1nc2ccccc2[nH]1 | inactive: -1.07%
COc1cccc(CN2CC(C(=O)NCCCn3cccn3)CCC2=O)c1 (stereo not given) | inactive: -0.157%
CCc1ccc[n+](-c2[nH]c(=O)sc2/C=N/N=C(\N)[O-])c1 | inactive: -4.4%
S=C1NCN(CCc2ccccc2)CN1 | inactive: -5.85%
CC(=O)NC(c1ccc(C)cc1)c1cc(Cl)c2cccnc2c1O (stereo not given) | inactive: 27.3%
O=[N+]([O-])c1cc(S(=O)(=O)N2CCCC2)ccc1N/N=C/c1cccnc1 | inactive: 4.72%
Cc1cc(C(C)(C)C)ccc1OC(=O)C1=CC=CN2CCS(=O)(=O)N=C12 | inactive: 9.3%
CS(=O)(=O)c1ccc2nc(NC(=O)c3cccc(NS(=O)(=O)c4ccc(F)c(F)c4)c3)sc2c1 | inactive: -9.16%
CCOC(=O)c1c(C)n(-c2ccc(C)cc2)c2ccc(O)c(CN(C)C)c12 | inactive: 14.5%
C=CCNC(=O)NC(=O)COC(=O)c1cccnc1SC | inactive: -8.76%
COC(=O)c1ccc(/C=N/NC(=O)CC(=O)NCc2cccnc2)cc1 | inactive: -11.3%
O=C(CCS(=O)(=O)c1ccc(Br)cc1)Nc1ccccn1 | inactive: -2.01%
CCN(c1ccccc1)S(=O)(=O)c1cc(C(=O)Nc2ccccc2Cl)ccc1F | inactive: -15.4%
CCc1ccc(N(C(=O)c2snc(C(N)=O)c2N)C(C(=O)NC2CCCC2)c2ccco2)cc1 (stereo not given) | inactive: 12.6%
COc1ccc(/C=N/NC(=O)Cc2cc(OC)c(OC)cc2[N+](=O)[O-])cc1 | inactive: 9.63%
C#CCn1c(-c2ccccc2)ccc(C#N)c1=O | inactive: -0.135%
COc1cc(-c2cc(-c3ccc(O)cc3)nc(N)c2C#N)ccc1O | inactive: 9.38%
O=C(CCc1ccccc1)Nc1ccc(NC(=O)C2CCCCC2)nc1 | inactive: 0.976%
O=S(=O)(NCCc1cccs1)c1ccc(Br)cc1 | inactive: 27.4%
O=C1N/C(=C/c2ccc(Br)s2)C(=O)N1c1ccccc1 | inactive: 4.76%
COc1ccc(C(=O)C2CCCN(C(=O)c3cccnc3OC)C2)c(C)c1 (stereo not given) | inactive: 6.97%
Cc1ccc2c([N+](=O)[O-])cccc2n1 | inactive: 6.15%
CSc1ccc(CN(C)CC(=O)Nc2ccccc2Br)cc1 | inactive: 13.3%
O=C(CN1CCSC1=O)N1CCN(S(=O)(=O)c2ccc(F)cc2)CC1 | inactive: 0.179%
Fc1ccc(-c2nnn3c2nc(NCc2ccccc2)c2ccccc23)cc1 | inactive: 8.15%
CCn1nc(C)cc1C(=O)NC1CCCc2c1cnn2-c1cc(F)cc(F)c1 (stereo not given) | inactive: 25.3%
